Laboratory results as given in PubChem BioAssay AID651820 (National Center for Advancing Translational Sciences (NCATS), 2012).
The campaign covered roughly 340,000 compounds. About 12,000 (3.5%) were called active. The inconclusive results got no clear call from the source; some entries with a clear call stand among them for comparison. The call rests on the fitted dose curve; in most records, active means well fitted inhibition curve with a large enough effect; inconclusive means small, poorly fitted or top-dose-only effect, or another doubt; inactive means no such curve, though single readings can be large or run the other way. No potency is given beside an inconclusive call; the fits are too rough.

Assay: qHTS Assay for Inhibitors of Hepatitis C Virus (HCV)
Conditions: Huh7.5.1 HCVcc-Cre (HCVcc is cell-culture hepatitis C virus) infection, luciferase reporter, 44 h; activity change, negative = inhibition: at 41.8 µM (top of the series) unless noted
Outline: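 Antiviral activity was scored by luciferase reporter output from cells infected with HCVcc-Cre (~0.5 moi) in presence of compound, 44 h infection period, cells seeded 1,000/well 4 h prior.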
On the % scale 0 is the no-effect control and ±100 the full control effect; potency means the concentration at half of the fitted maximal effect; tags describe the fitted curve by direction and shape.

| SMILES | Potency | activity change, negative = inhibition |
| --- | --- | --- |
| O=C(NN(c1ccccc1)c1ccccc1)c1ccc([N+](=O)[O-])o1 | inconclusive [inhibitor, partial curve] |  |
| O=C(c1cc2ccccc2oc1=O)N(Cc1ccco1)C1CCS(=O)(=O)C1 (centres undefined) |  | inactive: 18.9% |
| COCOc1ccc(/C=C2/Oc3cc(OCOC)cc(OCOC)c3C2=O)c(OCOC)c1 |  | inactive: -14.7% |
| CCC1(C(=O)OC)CCc2c(cc(OC)c3ccccc23)C1=O (centres undefined) | inconclusive [inhibitor, partial curve] |  |
| COc1ccc(CC(=O)Nc2ccccc2-c2ccccc2)cc1OC | inconclusive [inhibitor, full curve, poor fit] |  |
| CC(=O)NC(=S)Nc1ccc(NC(=O)COc2ccc(Cl)cc2)cc1 | inconclusive [inhibitor, partial curve, poor fit] |  |
| N#Cc1cc2ccccc2n2nnnc12 |  | inactive: 12.6% |
| COc1ccc(S(=O)(=O)N(C)CC(=O)Nc2ccc(C(F)(F)F)cc2)cc1Cl | inconclusive [inhibitor, single point] |  |
| COc1ccc(C2=NOC(Cn3nc(-c4ccccc4)cc3C(=O)O)C2)cc1 (centres undefined) | inconclusive [inhibitor, single point] |  |
| CCOc1ccc(OCCC(=O)OCC(=O)N2CCN(S(=O)(=O)c3ccc(C)cc3C)CC2)cc1 |  | inactive: 12.2% |
| N#C/C(=C\c1ccc(O)c(O)c1)C(=O)c1ccc(O)c(O)c1 | inconclusive [inhibitor, single point] |  |
| COC(=O)c1ccc(COc2cccc3c2CCN(Cc2ccccc2)C3=O)o1 | inconclusive [inhibitor, single point] |  |
| COC(=O)C1=C(C)N(c2ccc(C)c(C)c2)/C(=C/c2ccc(O)cc2)C1=O | inconclusive [inhibitor, single point] |  |
| COc1cc(NCCCNC(C)C)c2nccc(C)c2c1 | inconclusive [inhibitor, single point] |  |
| CCOC(=O)N1CCN(Cc2nc3cc(NC(=O)c4cccs4)ccc3n2C)CC1 | inconclusive [inhibitor, partial curve] |  |
| CCc1ccc(C(=O)/C=C/Nc2ccc(S(=O)(=O)Nc3onc(C)c3C)cc2)cc1 |  | inactive: 32.3% |
| O=c1c(Cl)c(NCc2ccccc2)cnn1C12CC3CC(CC(C3)C1)C2 |  | inactive: 31.2% |
| O=S(=O)(c1ccccc1)c1ncc(C(F)(F)F)cc1Cl | inconclusive [inhibitor, single point] |  |
| COc1cccc(CNC(=O)CCSCc2ccccc2F)c1 |  | inactive: 15% |
| CCCCCC(=O)Nc1ccc(C2C(=O)c3ccccc3C2=O)cc1 | active: 2.51 µM |  |
| O=C(NCCCl)Nc1ccc(Cl)c([N+](=O)[O-])c1 | inconclusive [inhibitor, partial curve, poor fit] |  |
| O=C(/C=N/O)NCCCN1CCCCCC1 |  | inactive: 11.2% |
| O=C(COC(=O)c1ccc(O)cc1O)Nc1cc(-c2ccccc2)nn1-c1ccccc1 |  | inactive: 4.71% |

| SMILES | Potency | activity change, negative = inhibition |
| --- | --- | --- |
| COc1ccc(OC)c(NC(=O)c2cccc(Cn3cc(Br)c([N+](=O)[O-])n3)c2)c1 | inconclusive [inhibitor, partial curve] |  |
| Cc1ccc(-c2ccc(=O)n(CC(=O)NCCCN3CCCCC3)n2)cc1 | inconclusive [inhibitor, full curve, poor fit] |  |
| CN(CC(=O)Nc1ccc(F)cc1)C(=O)c1cccc(S(=O)(=O)N2CCN(c3ccc(F)cc3)CC2)c1 | active: 8.91 µM |  |
| COc1ccc(-n2cc(CNCCCn3ccnc3)c(-c3cccc(F)c3)n2)cc1 | inconclusive [inhibitor, single point] |  |
| O=C(NN=Cc1c(O)ccc2ccccc12)c1ccc2c(c1)OCO2 | active: 5.01 µM |  |
| Cc1c(C(=O)OCC(C)C)[nH]c2c1C(=O)CC(c1ccco1)C2 (centres undefined) | inconclusive [inhibitor, partial curve, poor fit] |  |
| O=C(Nc1ccc2oc(-c3ccccc3)nc2c1)c1ccccc1F | inconclusive [inhibitor, partial curve] |  |
| CCOc1ccc(CCNC(=O)Nc2cccc(OC)c2)cc1OCC |  | inconclusive: -43.4% [inhibitor] |
| CCCNC(=O)c1c(NC(=O)C2COc3ccccc3O2)sc2c1CCCC2 (centres undefined) |  | inactive: -5.86% |
| CCOc1ccc(OCCC(=O)OCC(=O)Nc2cc(OCC)c(N3CCOCC3)cc2OCC)cc1 | inconclusive [inhibitor, single point] |  |
| O=C(C1CCN(S(=O)(=O)c2ccc(Br)s2)CC1)N1CCCCC1 | inconclusive [inhibitor, partial curve] |  |
| COc1ccc(N(CC(O)Cn2c3ccccc3c3ccccc32)S(=O)(=O)c2ccccc2)cc1 (centres undefined) | inconclusive [inhibitor, single point] |  |
| CCn1nnnc1SCC(=O)NCc1ccco1 |  | inactive: 10.2% |
| C[C@H](CO)N1C[C@H](C)[C@@H](CN(C)CC2CCCCC2)Oc2c(NC(=O)Cc3ccccc3)cccc2C1=O | inconclusive [inhibitor, full curve, poor fit] |  |
| N#CCSc1nc(Nc2ccc3c(c2)OCO3)c2ccccc2n1 | active: 8.91 µM |  |
| CCC(C)(C)n1nnnc1C(c1cc2cc(C)cc(C)c2[nH]c1=O)N1CCCC1 (centres undefined) | inconclusive [inhibitor, partial curve, poor fit] |  |
| Cc1ccc(/C=C/C(=O)N2CCCN(C(=O)/C=C/c3ccc(C)cc3)CC2)cc1 |  | inactive: -0.178% |
| COc1ccccc1N1CCN(S(=O)(=O)c2cc(C)sc2C)CC1 | inconclusive [inhibitor, single point] |  |
| O=C(Nc1ccc(Cl)cc1)N[C@@H]1c2c(ccc3ccccc23)OC[C@@H]1CO | inconclusive [inhibitor, full curve] |  |
| CCc1ccc(NS(=O)(=O)c2cc3c(cc2C)n(C)c(=O)c(=O)n3C)cc1 | inconclusive [inhibitor, single point] |  |
| Cc1nc(N2CCN(Cc3ccccc3)CC2)nc2c1C(=O)CCC2 | inconclusive [inhibitor, partial curve] |  |
| Cc1ccc2nc(NC(=O)CSc3nc(=O)n(CCCN(C)C)c4c3CCC4)sc2c1 | inconclusive [inhibitor, partial curve] |  |
| COc1ccc(CCNC(=O)c2cc([N+](=O)[O-])ccc2N2CCOCC2)cc1 | inconclusive [inhibitor, full curve, poor fit] |  |

| SMILES | Potency | activity change, negative = inhibition |
| --- | --- | --- |
| S=C(NCCc1ccccc1)NC1CC2CCC(C1)N2Cc1ccccc1 (centres undefined) | inconclusive [inhibitor, single point] |  |
| NC(=O)c1c(NC(=O)Cc2cccs2)sc2c1CCC2 | inconclusive [inhibitor, single point] |  |
| CC(Oc1ccc(F)cc1)C(=O)Nc1ccc2ccccc2c1 (centres undefined) | inconclusive [inhibitor, partial curve] |  |
| CCCc1cc(N2CCN(C(=O)c3ccco3)CC2)n2c(nc3ccccc32)c1C#N | inconclusive [inhibitor, single point] |  |
| O=C(C[n+]1ccc(C(=O)c2ccccc2)cc1)Nc1ccc(C(F)(F)F)cc1 | active: 2 µM |  |
| S=C1NC[C@H](Cc2ccccc2)N1CC1CCN(CCCC2CCCC2)CC1 | inconclusive [inhibitor, partial curve] |  |
| Cc1ccc(Cn2nnnc2CN2CCC(n3nnc4ccccc43)CC2)cc1 | inconclusive [inhibitor, partial curve, poor fit] |  |
| COc1ccc(CCNC(=O)/C=C/c2ccc3ccccc3n2)cc1OC | inconclusive [inhibitor, single point] |  |
| CC(=O)Nc1cccc(-c2cnc(N)c(C(=O)c3cccnc3)n2)c1 | active: 11.2 µM |  |
| COc1cc(C=CC(=O)c2cc(OC)c(OC)c(OC)c2)cc(OC)c1OC | inconclusive [inhibitor, partial curve, poor fit] |  |
| COc1cnc(SCCC(F)=C(F)F)[nH]c1=O |  | inactive: 4.65% |
| CCOc1cc(/C=N\NC(=O)c2ccc(NC(=O)C(C)(C)C)cc2)ccc1OC(=O)c1cccc(C)c1 | active: 3.16 µM |  |
| Cc1cc2oc(=O)cc(CN(C)Cc3ccc(OC(F)F)cc3)c2cc1Cl | inconclusive [inhibitor, single point] |  |
| CC1Cc2ccccc2N1C(=O)CSc1nc2ccccc2o1 (centres undefined) | inconclusive [inhibitor, single point] |  |
| COCCCn1c(SCC(=O)NC2CCCCC2)nnc1-c1ccco1 |  | inactive: 8.03% |
| COc1ccc(CN2CCC(CO)(CCOc3ccccc3)CC2)c(OC)c1C | inconclusive [inhibitor, single point] |  |
| N/C(=N\OC(=O)Cc1cccs1)c1ccc(Br)cc1 | inconclusive [inhibitor, partial curve] |  |
| COc1ccc(OC)c(NC(=O)C2CCC(CNc3c(N4CCOCC4)c(=O)c3=O)CC2)c1 (centres undefined) |  | inactive: -17.9% |
| COc1ccc(/C=C/C(=O)c2cc(Br)ccc(=O)c2O)cc1 | inconclusive [inhibitor, single point] |  |
| Nc1nonc1C(=O)N/N=C/c1cc2c(cc1[N+](=O)[O-])OCO2 |  | inactive: -7.53% |
| NC(=O)C1CCCN1 (centres undefined) | inconclusive [inhibitor, single point] |  |
| CC1CCCC(NC(=O)COC(=O)[C@@H](NC(=O)c2ccc(F)cc2)C(C)C)C1C (some centres undefined) |  | inactive: 1.58% |
| Cc1c(O)c(CN2CCCC2)cc2c1oc(=O)c1ccccc12 | inconclusive [inhibitor, partial curve] |  |
